Experimental findings from the supplement of paper PMC12355420 are described below.

Where a name gives a salt, the structure may show the parent alone. The list shows a part of the results. Repeats are few or missing, and single values can be far off.
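Note: primary screen of an FDA-approved drug library in HeLa reporter cells in 96-well format, CellMask signal normalized to DMSO-treated wells set as 1, under 0.5 deemed highly cytotoxic.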

For the assay, the system named is HeLa VPS33A reporter cells. The assay is described as follows: relative cell viability (CellMask signal) vs DMSO (fraction of DMSO); HeLa model of a glycosaminoglycan (GAG) storage disease; KI is knock-in and KO knock-out; SDC1 is syndecan 1; higher = less cytotoxic. The conditions noted are these: 50 µM; 24 h.
Turning to `CC(CN1c2ccccc2Sc2ccccc21)N(C)C` (stereo not given) [Promethazine HCl], the relative cell viability was determined as 0.464.

`CCN(CC)CC#CCOC(=O)C(O)(c1ccccc1)C1CCCCC1` (stereo not given) [Oxybutynin chloride] registered a relative cell viability of 0.0124. Then `COC(=O)[C@H]1[C@H]2C[C@@H]3c4[nH]c5cc(OC)ccc5c4CCN3C[C@H]2C[C@@H](OC(=O)c2cc(OC)c(OC)c(OC)c2)[C@@H]1OC` [Reserpine hydrochloride], with 0.00703; and `C[n+]1cc2c3c(ccc2c2ccc4cc5c(cc4c21)OCO5)OCO3` [Sanguinarine], with 0.00728; and `COc1ccc(CC2c3cc(OC)c(OC)cc3CC[N+]2(C)CCC(=O)OCCCCCOC(=O)CC[N+]2(C)CCc3cc(OC)c(OC)cc3C2Cc2ccc(OC)c(OC)c2)cc1OC` (stereo not given) [Atracurium Besylate], with 0.00591.

Take `CC(C)C[C@H](NC(=O)CNC(=O)c1cc(Cl)ccc1Cl)B1OC(=O)CC(CC(=O)O)(C(=O)O)O1` (stereo not given in full): the relative cell viability turned out to be 0.0204. Then `Clc1ccc(C(Cn2ccnc2)OCc2c(Cl)cccc2Cl)c(Cl)c1` (stereo not given) [Isoconazole nitrate], with 0.00894; and `CCCCOc1cc(C(=O)NCCN(CC)CC)c2ccccc2n1` [Dibucaine (Cinchocaine) HCl], with 0.00554. To `C=CC(=O)N1CCC[C@@H](n2nc(-c3ccc(Oc4ccccc4)cc3)c3c(N)ncnc32)C1` belongs 0.00463; to `CO[C@H]1/C=C/O[C@@]2(C)Oc3c(C)c(O)c4c(O)c(c(/C=N/N5CCN(C6CCCC6)CC5)c(O)c4c3C2=O)NC(=O)/C(C)=C\C=C\[C@H](C)[C@H](O)[C@@H](C)[C@@H](O)[C@@H](C)[C@H](OC(C)=O)[C@@H]1C` [Rifapentine], 0.18; to `Oc1c(Br)cc(Br)c2cccnc12` [Broxyquinoline], 0.375. Then `CCN(CC)CC#CCOC(=O)C(O)(c1ccccc1)C1CCCCC1` (stereo not given) [Oxybutynin], with 0.0607.

Turning to `CC/C(=C(\c1ccccc1)c1ccc(OCCN(C)C)cc1)c1ccccc1` [Tamoxifen], the relative cell viability was 0.00836.

Turning to `CC1=C(/C=C/C(C)=C/C=C/C(C)=C/C(=O)O)C(C)(C)CCC1` [Tretinoin (Aberela)], the relative cell viability worked out at 0.204. To `Cc1coc2c1C(=O)C(=O)c1c-2ccc2c1CCCC2(C)C` [Tanshinone IIA] belongs 0.441; to `CC(=O)OC(C)C(C)C(=O)OCC12C3CC(C)(C)[C@H](O[C@@H]1C[C@]1(C)C3=CCC3C4(C)CCC(O[C@@H]5O[C@H](C(=O)O)[C@@H](O[C@H]6O[C@H](CO)[C@@H](O)[C@H](O)[C@H]6O)[C@H](O)[C@H]5O[C@@H]5OC[C@@H](O)[C@H](O)[C@H]5O)[C@](C)(CO)C4CCC31C)C2O` (stereo not given in full) [Sodium Aescinate], 0.00488; to `Cc1ccc(NC(=O)c2ccc(CN3CCN(C)CC3)cc2)cc1Nc1nc(-c2cccnc2)cs1` [Masitinib (AB1010)], 0.00693. Then `O=C(O)CSc1nnc(Br)n1-c1ccc(C2CC2)c2ccccc12` [Lesinurad], with 0.413. Then `COc1cccc2c1C(=O)c1c(O)c3c(c(O)c1C2=O)C[C@@](O)(C(=O)CO)C[C@@H]3O[C@H]1C[C@H](N)[C@H](O)[C@H](C)O1` [Doxorubicin], with 0.00311. The molecule `CCCCCCCCCCCCCCCCOP(=O)([O-])OCC[N+](C)(C)C` [Miltefosine] returned a relative cell viability of 0.0102.

Molecule `CN(C)CC/C=C1/c2ccccc2Sc2ccc(Cl)cc21` [Chlorprothixene (hydrochloride)] had a relative cell viability of 0.00507. With `O=C(OCCOCCO)c1ccccc1Nc1cccc(C(F)(F)F)c1` [Etofenamate], the relative cell viability amounted to 0.00335. The molecule `Nc1ncn([C@@H]2O[C@H](CO)[C@@H](O)[C@H]2O)c(=O)n1` [5-Azacytidine] yielded a relative cell viability of 0.0217.

Consider `COc1cc2c(Oc3ccc(NC(=O)C4(C(=O)Nc5ccc(F)cc5)CC4)cc3F)ccnc2cc1OCCCN1CCOCC1`, for which the relative cell viability was 0.00332.

As to `CC/C(=C(\c1ccccc1)c1ccc(OCCN(C)C)cc1)c1ccccc1` [Tamoxifen Citrate], the relative cell viability is 0.00953.

Consider `Clc1ccc(CSC(Cn2ccnc2)c2ccc(Cl)cc2Cl)cc1` (stereo not given) [Sulconazole Nitrate], for which the relative cell viability came out at 0.00495.

With `CO[C@H]1C[C@H](O[C@H]2[C@H](C)O[C@@H](O[C@@H]3/C(C)=C/C[C@@H]4C[C@@H](C[C@]5(C=C[C@H](C)[C@@H](C6CCCCC6)O5)O4)OC(=O)[C@@H]4C=C(C)[C@@H](O)[C@H]5OC/C(=C\C=C\[C@@H]3C)[C@]54O)C[C@@H]2OC)O[C@@H](C)[C@@H]1O` [Doramectin], the relative cell viability turned out to be 0.0117.

`CCC1=C[C@@H]2CN(C1)Cc1c([nH]c3ccccc13)[C@@](C(=O)OC)(c1cc3c(cc1OC)N(C)[C@H]1[C@@](O)(C(=O)OC)[C@H](OC(C)=O)[C@]4(CC)C=CCN5CC[C@]31[C@@H]54)C2` [Vinorelbine ditartrate] showed a relative cell viability of 0.00699.

Molecule `CCCNCC(O)COc1ccccc1C(=O)CCc1ccccc1` (stereo not given) [Propafenone HCl] yielded a relative cell viability of 0.0438.

`CC(C)(C)c1cc(NC(=O)Nc2ccc(-c3cn4c(n3)sc3cc(OCCN5CCOCC5)ccc34)cc2)no1` [Quizartinib (AC220)] displayed a relative cell viability of 0.202.
